Screen size: about 110,000 compounds; about 230 (0.21%) showed an effect of 50% or more. Some of the results follow.
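Note: 30 min substrate incubation versus DMSO and 10 µM JCP410 controls.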

Chain of DPAP1 (Q8IIJ9 whole entry, looked up): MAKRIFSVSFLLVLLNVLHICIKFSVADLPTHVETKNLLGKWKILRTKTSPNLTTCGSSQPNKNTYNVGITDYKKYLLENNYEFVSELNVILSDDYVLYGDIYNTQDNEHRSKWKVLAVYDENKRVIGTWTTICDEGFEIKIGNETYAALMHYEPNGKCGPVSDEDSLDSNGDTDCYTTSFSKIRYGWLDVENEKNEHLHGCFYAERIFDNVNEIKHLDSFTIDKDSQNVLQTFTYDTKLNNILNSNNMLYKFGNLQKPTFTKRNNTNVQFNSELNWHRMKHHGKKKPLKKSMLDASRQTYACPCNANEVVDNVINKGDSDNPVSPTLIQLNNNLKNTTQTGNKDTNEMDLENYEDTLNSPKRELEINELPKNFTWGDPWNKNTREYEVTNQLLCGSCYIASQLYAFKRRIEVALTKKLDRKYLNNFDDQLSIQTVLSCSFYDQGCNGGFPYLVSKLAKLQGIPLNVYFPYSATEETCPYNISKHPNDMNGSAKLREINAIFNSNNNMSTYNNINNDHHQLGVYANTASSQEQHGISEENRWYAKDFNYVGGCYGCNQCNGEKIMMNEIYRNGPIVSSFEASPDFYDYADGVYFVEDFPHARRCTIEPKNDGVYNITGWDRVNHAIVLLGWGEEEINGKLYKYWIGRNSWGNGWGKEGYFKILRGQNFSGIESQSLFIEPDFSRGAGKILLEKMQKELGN

This experiment has as its target DPAP1 (Plasmodium falciparum, UniProt Q8IIJ9). Put plainly: primary screen, percent inhibition; read by cleavage of a fluorogenic dipeptide substrate; higher = more effect of the substance. More on the design: species or system P. falciparum D10 trophozoite lysates; single well.
`O=C(NCC1CCCO1)c1cnc(N2CCCC2)nc1` (centres unmarked): the “% Inhibition @ 10 uM” value is 3.55%.

For the molecule `O=C(c1cccc(F)c1)N1CCN(Cc2ccccn2)CC1`, the “% Inhibition @ 10 uM” value was found to be 11.5%.

As to `Cc1ccnc(NS(=O)(=O)c2ccc3ccccc3c2)c1`, the “% Inhibition @ 10 uM” value is reported as -0.849%. Turning to `CN1CCCN(Cc2ccccc2)CC1`, the “% Inhibition @ 10 uM” value worked out at 4.81%. In the case of `CCOC(=O)N1CCN(C(=O)CN(c2ccccc2Cl)S(C)(=O)=O)CC1` it was -0.641%; in that of `O=c1oc2ccccc2c(O)c1Sc1ccccc1`, -1.76%. `CCOc1c(S)cnn(-c2ccccc2)c1=O`: the “% Inhibition @ 10 uM” value stood at 13%. On to `COC(=O)N(C)CC1Cc2ccccc2O1` (centres unmarked), for which the “% Inhibition @ 10 uM” value is -2.36%. For the molecule `CC(=O)c1sc(Nc2nc(NC(C)C)nc(NC(C)C)n2)nc1C`, the “% Inhibition @ 10 uM” value is -2.14%. Take `O=C(NCC1CCCO1)C1c2ccccc2C(=O)N1CCc1ccccc1` (centres unmarked): the “% Inhibition @ 10 uM” value is recorded as -1.29%. In the case of `O=C(Cc1ccccc1)Nc1cccc(C(=O)Nc2nccs2)c1`, the “% Inhibition @ 10 uM” value is listed as -3.09%. Take `CCN(Cc1ccc(OC)cc1)S(=O)(=O)c1nnc(NC(=O)c2cccc(F)c2)s1`: the “% Inhibition @ 10 uM” value is -1.95%. The value for `Cc1nc2ccccn2c1C(=O)NC(C)c1ccccc1` (centres unmarked) was -0.0648%; that for `CCCC(=O)/N=C(\N)Nc1nc(C)c2ccccc2n1` was 3.95%; that for `CCOc1ccccc1NC(=O)C1=C(C)NC(=O)NC1c1cc(OC)c(OC)c(OC)c1` (centres unmarked) was -0.69%. Consider `CCOC(=O)C1=C(N)Oc2c(c(=O)oc3ccccc23)C1c1ccc(Br)cc1` (centres unmarked), for which the “% Inhibition @ 10 uM” value is recorded as -4.31%. For the molecule `COc1ccc(C2(C(=O)NCCCN(C)C)CCCC2)cc1`, the “% Inhibition @ 10 uM” value is reported as -1.43%.

In the case of `Cc1ccc2c(c1)cc1c(=O)n(CC(=O)NC(C)c3ccccc3)nc(C)n12` (centres unmarked), the “% Inhibition @ 10 uM” value is reported as 6.35%. The value for `O=C1OC(C2CCCCC2)=N/C1=C\c1ccc(Cl)cc1` was 12.2%; that for `O=c1c2cc3c(=O)n(CCO)c(=O)c3cc2c(=O)n1CCO` was -0.0369%. For the molecule `O=C(NCc1ccc2c(c1)OCO2)c1cc(-c2ccccn2)nc2ccccc12`, the “% Inhibition @ 10 uM” value is -0.519%. On to `O=C(O)c1ccccc1C(=O)Nc1ccc(N2CCN(CCO)CC2)cc1`, for which the “% Inhibition @ 10 uM” value is listed as 1.94%. In the case of `CN1CCN(Cc2ccc(F)cc2)CC1`, the “% Inhibition @ 10 uM” value was -0.127%. As to `Cc1ccccc1Cn1c(C)c(CNCc2ccc3c(c2)OCO3)c(C(=O)O)c1C`, the “% Inhibition @ 10 uM” value is on record as -7.36%. With `Cc1sc2c(c1C)CSC(C(=O)NCCc1ccc(Cl)cc1)=C2`, the “% Inhibition @ 10 uM” value amounted to 7.63%. As to `COc1ccc(Cl)cc1C(=O)N1CCN(c2ccc(Cl)cc2)CC1`, the “% Inhibition @ 10 uM” value is 17.5%. In the case of `COc1ccccc1NC(=O)c1c(NC(=O)c2ccco2)sc2c1CCC(C)C2` (centres unmarked) it was 0.144%. In the case of `c1ccc(-c2ccc(Oc3cc(-n4cccn4)ncn3)cc2)cc1` it was 3.48%; in that of `COc1ccc(-n2nc3c(N4CCCC(C(=O)NCCC5=CCCCC5)C4)nnc(C)c3c2C)cc1` (centres unmarked), 4.05%. In the case of `Cc1cc(C)c2c(N)c(C(=O)Nc3ccccc3Cl)sc2n1` it was -2.82%.

With `CC(NC(=O)CCS(=O)(=O)Cc1ccccc1F)c1ccccc1` (centres unmarked), the “% Inhibition @ 10 uM” value came out at 2.18%. In the case of `Nc1nonc1N1CCCCC1` it was -3.53%; in that of `CCC1=CC(C)(CC)N(Cc2ccc([N+](=O)[O-])cc2)c2ccccc21` (centres unmarked), -1.47%; in that of `COCC(C)NCc1ccccc1Br` (centres unmarked), -1.56%.

`Cn1c(=O)c2c(nc(SCC(=O)Nc3ccc4c(c3)OCO4)n2Cc2ccccc2)n(C)c1=O`: the “% Inhibition @ 10 uM” value came to 1.13%. Consider `COc1ccc2cc(OCC(=O)N3N=C(C(F)F)CC3(O)C(F)F)ccc2c1` (centres unmarked), for which the “% Inhibition @ 10 uM” value is on record as -0.99%. The value for `CCOC(=O)C1=C(CN2CCC(Cc3ccccc3)CC2)NC(=O)NC1c1ccco1` (centres unmarked) was 0.708%; that for `CC(C)(C)NCC(=O)N1CC(=O)Nc2ccccc21` was -4.65%; that for `COc1ccc(CNc2nc(-c3cccnc3)nn2S(=O)(=O)c2ccc(Cl)cc2)cc1` was 2.21%. The value for `COc1ccccc1N(CC(=O)Nc1ccccc1Br)S(=O)(=O)c1ccccc1` was -1.95%; that for `O=C(O)CCNCc1c(Cl)cccc1Cl` was 3.04%; that for `NS(=O)(=O)c1ccc(NC(=O)/C(=C/c2ccccc2Cl)NC(=O)c2ccccc2)cc1` was 2.01%.

As for `CC1=C(C(=O)Nc2cccnc2)C(c2ccc3c(c2)OCO3)n2nc(-c3cccs3)nc2N1` (centres unmarked), the “% Inhibition @ 10 uM” value is -9.77%. `CC1(C)CC(=O)C(/C=N/c2ccccc2C(=O)c2ccccc2)=C(O)C1`: the “% Inhibition @ 10 uM” value is recorded as 1.37%. Take `COc1c(C)cc(NS(=O)(=O)c2ccc(SC)cc2)cc1C`: the “% Inhibition @ 10 uM” value was 3.99%. The value for `CN1C(=O)C(=Cc2ccc(SCc3ccco3)o2)C(=O)N(C)C1=O` was 16.3%. As to `COc1cccc(Nc2cc(C)c3ccccc3n2)c1`, the “% Inhibition @ 10 uM” value is listed as -1.37%. The value for `CCOc1cc(C(=O)Nc2ccc(C)cn2)cc(OCC)c1OCC` was -1.79%; that for `O=Cc1ccc(Sc2nnc(-c3ccccc3)n2-c2ccccc2)o1` was -0.597%; that for `CC1=C(C(=O)Nc2ccc(F)cc2F)C(c2ccc(F)cc2)C2=C(O)CC(C)(C)CC2=N1` (centres unmarked) was -2.78%. `c1ccc(CN2CCN(c3nnc(-n4cccc4)s3)CC2)cc1`: the “% Inhibition @ 10 uM” value is listed as -3.47%. The value for `COC(C(=O)OC(C)CN(C)C)(c1ccccc1)c1ccccc1` (centres unmarked) was -5.33%; that for `O=C(Cn1cnc2cc(Cl)ccc2c1=O)Nc1ccc2c(c1)OCO2` was 3.53%; that for `CCOC(=O)c1cccnc1SCC(=O)O` was 0.387%. Regarding `Cc1cccc(C)c1NC(=O)Nc1ccccc1`, the “% Inhibition @ 10 uM” value was -1.93%.

With `CC(C)NCC1(O)CC2C3CCC4CC(O)CCC4(C)C3CCC2(C)C1` (centres unmarked), the “% Inhibition @ 10 uM” value is on record as 3.32%. For the molecule `CC12CCC(C(=O)O)(c3nc4ccccc4nc31)C2(C)C` (centres unmarked), the “% Inhibition @ 10 uM” value is reported as 3.08%.

`CCN(Cc1ccccc1)C1CCCCC1NS(=O)(=O)c1ccc(Cl)cc1` (centres unmarked): the “% Inhibition @ 10 uM” value is on record as -2.4%. In the case of `CCOc1ccc(C2c3c(oc4ccccc4c3=O)C(=O)N2c2nccs2)cc1` (centres unmarked), the “% Inhibition @ 10 uM” value is reported as -3.87%. In the case of `O=C1C2CCCN2C(=O)N1CCCCN1CCN(c2ccc(F)cc2)CC1` (centres unmarked), the “% Inhibition @ 10 uM” value is on record as 1.64%. On to `O=C(O)CSc1nnc(-c2ccncc2)n1-c1ccccc1`, for which the “% Inhibition @ 10 uM” value is recorded as -3.95%.

For `Cc1cc(Cl)ccc1OC(C)C(=O)N1CCN(Cc2ccccc2)CC1` (centres unmarked), the “% Inhibition @ 10 uM” value is given as -8.46%. In the case of `CCOc1ccccc1C(=O)NCc1ccccc1`, the “% Inhibition @ 10 uM” value is given as -3.26%. In the case of `COc1ccccc1NC(=O)c1sc2nc3c(cc2c1N)CCC3` it was 7.71%. Consider `CCCNC(=O)c1c(NC(=O)c2ccccc2C)sc2c1CCC2`, for which the “% Inhibition @ 10 uM” value is recorded as -5.98%.

Take `Cc1cc(NC(=O)COc2ccc(F)cc2)n(Cc2ccc(F)cc2)n1`: the “% Inhibition @ 10 uM” value is listed as -1.37%.

For the molecule `O=C(C1=C(O)C(=O)N(CCCn2ccnc2)C1c1ccc(Cl)cc1)c1cc2ccccc2o1` (centres unmarked), the “% Inhibition @ 10 uM” value is listed as 8.74%. With `COc1cc(/C=C2\NC(=S)NC2=O)cc(OC)c1OC`, the “% Inhibition @ 10 uM” value is given as -2.35%. Take `O=C(NCC1CCN(Cc2ccc(F)cc2)CC1)C(c1ccccc1)N1Cc2ccccc2C1=O` (centres unmarked): the “% Inhibition @ 10 uM” value is 1.6%.

`COc1ccc(S(=O)(=O)NCCc2nnc3ccc(SCC(N)=O)nn23)cc1`: the “% Inhibition @ 10 uM” value is 0.857%. As for `Cc1cc(C(F)(F)F)nn1CC(=O)N1CCOCC1`, the “% Inhibition @ 10 uM” value was 0.0538%.

On to `Cc1c(C(c2ccc3c(c2)OCO3)c2c(C)n(C)n(-c3ccccc3)c2=O)c(=O)n(-c2ccccc2)n1C`, for which the “% Inhibition @ 10 uM” value was found to be 3.74%. As for `O=c1c(Cl)c(NCCO)cnn1C12CC3CC(CC(C3)C1)C2`, the “% Inhibition @ 10 uM” value stood at 3.32%. As to `O=C(CCCn1sc2ccccc2c1=O)NCCCN1CCc2ccccc2C1`, the “% Inhibition @ 10 uM” value is -1.28%.

Take `N#Cc1c(SCC(N)=O)nsc1SCc1ccccc1Cl`: the “% Inhibition @ 10 uM” value is -2.07%. `Cc1nc(NC(=O)C2CC3CCC2C3)sc1C` (centres unmarked): the “% Inhibition @ 10 uM” value is 2.39%.

Take `COc1cccc(NC(=O)c2cccc([N+](=O)[O-])c2)c1`: the “% Inhibition @ 10 uM” value is given as 1.91%. In the case of `NS(=O)(=O)c1ccc(NC(=O)[C@@H]2CCCC[C@@H]2C(=O)O)cc1` it was -1.84%. In the case of `COc1ccc2nc3c(O)n(CCCN(C)C4CCCCC4)cnc-3c2c1` it was 1.64%. In the case of `COc1cccc(C(=O)N2CCC3(CC2)N=C(c2ccc(Cl)cc2)C(=O)N3)c1`, the “% Inhibition @ 10 uM” value amounted to 0.453%. Consider `C=CCc1cc(/C=C2/C(=N)N3OC(C)=CC3=NC2=O)cc(OC)c1OCCOc1ccccc1Cl`, for which the “% Inhibition @ 10 uM” value was -7.05%. In the case of `CCOc1nc(-c2ccc(Cl)cc2)ccc1-c1noc(-c2ccncc2)n1` it was 3.73%; in that of `COc1ccccc1C(=O)Nc1cccc(Br)c1`, -4.35%. As to `CC1CCCCN1S(=O)(=O)c1ccc(Cl)c([N+](=O)[O-])c1` (centres unmarked), the “% Inhibition @ 10 uM” value is -0.856%. The value for `O=C(NCCO)c1nnc(-c2ccccc2)o1` was -4.47%; that for `Cc1ccc(NC(=O)c2cnn(-c3ccccc3)c2C)cc1` was 3.72%; that for `Cc1cccc(C)c1NC(=O)Nc1cccc2ccccc12` was -1.62%. In the case of `O=C(O)CCCC(=O)Nc1ccc(F)cc1` it was 3.16%; in that of `Cc1ccc(-c2c(C(=O)NCCC(C)C)oc(=O)c3ccccc23)cc1`, 1.9%; in that of `CCC(=O)N1C2NC3C4NC2N(C(=O)CC)C1C(N3C(=O)CC)N4C(=O)CC`, 4.03%. The value for `COc1ccccc1OCC(O)CN1CCN(C(=O)c2ccccc2)CC1` (centres unmarked) was -17.9%; that for `CCCCn1/c(=N\C(C)=O)c(C(=O)OCC)cc2c(=O)n3ccccc3nc21` was 1.26%; that for `O=C1c2cccc3cccc(c23)C(=O)N1CCOc1ccccc1` was -5.36%. Consider `CCOC(=O)C1=C(N)OC2=C(C(=O)CCC2)C1c1cc(CN2CCOCC2)cs1` (centres unmarked), for which the “% Inhibition @ 10 uM” value is -2.28%.

As for `O=C(CCN1C(=O)c2ccccc2C1=O)NC(=O)NC(c1ccccc1)c1ccccc1`, the “% Inhibition @ 10 uM” value amounted to 1.43%. In the case of `CCOC(=O)c1[nH]c(C)c(C(=O)N(C)CCC#N)c1C` it was -3.44%; in that of `COc1cc(OC)c(C2C(C#N)=C(N)Oc3[nH]nc(C)c32)c(OC)c1` (centres unmarked), -5.14%; in that of `CCOC(=O)c1[nH]c(C(=O)O)c(CC)c1C`, 1.26%. In the case of `CCOC(=O)c1sc(NC(=O)C(C)Oc2ccc(OC)cc2)nc1C` (centres unmarked) it was 13.2%. With `COc1cc(C2c3c(oc4ccccc4c3=O)C(=O)N2c2nc(C)c(C(C)=O)s2)ccc1O` (centres unmarked), the “% Inhibition @ 10 uM” value is 8.51%. In the case of `Cc1c(C(=O)O)oc2c3c(ccc12)OCCO3` it was 1.29%.
